Data: the supplement of paper PMC10126150
Values marked as one replicate rest on one cluster of the flow cell; about a third of the high ones do not repeat.

Tested on: ATP
Experiment: switch fluorescence ratio, 500 uM ATP over buffer (Cy3 cluster intensity, sum of 5 cycles each) (fold (ratio)); higher = stronger signal-on switching upon ATP binding; sequences stand for … in TCGTCGGCAGCGTCAGATGTGTATAAGAGACAGTTTTTTTTTTTTTTTTTTTTTTTTT…TC
Details: aptamer strand: ATP DNA aptamer (quencher-CACCTGGGGGAGTATTGCGGAGGAAGG + anchor), 100 nM annealed; ATP concentration: 500 uM; one replicate
Method in brief: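 Cy3-labelled switching-strand clusters on a modified Illumina MiSeq flow-cell were annealed to 100 nM quencher-labelled ATP aptamer and imaged first in selection buffer, then after 15 min with 500 uM ATP at 22 °C. NaOH stripping and re-annealing separated each of five buffer/ATP cycles, and clusters outside 100-1000 RFU were excluded. The fluorescence ratio sums target-cycle Cy3 intensity over buffer-cycle Cy3 intensity per cluster and averages it per switch-domain sequence.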
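Further: ATP exposure 15 min at 22 °C before imaging.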

| Sequence | switch fluorescence ratio |
| --- | --- |
| GGCTTCGAAT | 0.966 |
| TCTCACTTAT | 1.05 |
| CTTCGCTTTG | 1.22 |
| AATAGGGACG | 1.09 |
| GTCTGATAGG | 1.03 |
| ACAGGCTTGG | 1 |
| AGAATATACA | 1.03 |
| CAAATTAAGA | 0.995 |
| TCGGTCTCAA | 1.05 |
| AAAGAGAGGT | 0.999 |
| ACTGCTCCGA | 1.3 |
| AATACCATTC | 0.975 |
| TAGAGTAAGT | 0.95 |
| TTCCATGAAC | 1.01 |
| GTTTTTCC | 1.06 |
| TTTAGCTATA | 1.06 |
| AATGTAATGT | 1.06 |
| CAATTGCGC | 1.03 |
| AAACGATTCG | 1.03 |
| TTTCGTTGGA | 1.02 |
| TGAACAACAT | 1 |
| CTACTCGTCG | 0.998 |
| GTATCGAGC | 1.01 |
| ATCAGGGACC | 1.04 |
| ACATAGGGTC | 0.981 |
| GACCACGTGC | 1 |

| Sequence | switch fluorescence ratio |
| --- | --- |
| GAGCGTCCCC | 1.02 |
| GTTAAATAAA | 1 |
| GGCGTGTCAT | 0.936 |
| TTATTCCAAA | 1.01 |
| AGGCCGTTGA | 0.982 |
| CCTTAAGGTG | 3.14 |
| CACATTAACA | 1.06 |
| CTGCTAAATA | 1.08 |
| GAGTAGTGGC | 1.02 |
| AGTTAACATA | 1.04 |
| CTGAGAGAAG | 0.971 |
| ACGGCCCTGC | 1.04 |
| ATATGCCCTG | 1.03 |
| GGCCCAGGTC | 2.14 |
| TCACTTTAAT | 1.05 |
| TACCTGCTTC | 1.04 |
| TTACTTTAGA | 1.02 |
| GAATGTGGTA | 0.971 |
| ATCGGCATAG | 1.13 |
| GCGTTATTCG | 1 |
| CAGTGGATAT | 1.01 |
| TTTTCGTACC | 1.08 |
| GCCTATTATT | 1.02 |
| TATGAACCCC | 1.25 |
| CTAATATATG | 0.966 |
| TGGCGCGCTC | 0.97 |

| Sequence | switch fluorescence ratio |
| --- | --- |
| TTAGCATCGT | 1.01 |
| CACAGGCCTG | 1.04 |
| CTTTGAAAGG | 0.931 |
| AACTAATCAT | 1.01 |
| GTTGACAGGG | 1.05 |
| TGTTTTTCGT | 0.964 |
| TAATAGGGAC | 1.02 |
| TTCAGTTATC | 0.926 |
| CTCCCCCACT | 2.42 |
| TATGATGCGC | 0.989 |
| ATGTGGCGGT | 0.98 |
| GCCTTGGGTT | 1 |
| ATCACTTTGA | 1.01 |
| TTGATTCCGT | 1.1 |
| CTATTAAATT | 0.999 |
| AAAGAGAGGG | 1.05 |
| AATACAGGC | 1.17 |
| ACGCGAACAT | 1.02 |
| CCCCCACCAG | 1.66 |
| TTTCAGGCAC | 1.18 |
| ACTTTAATAG | 1.02 |
| AGAGGCGCAT | 1 |
| TCTCAAAGCG | 0.981 |
| CGATAGTCGC | 0.965 |
| CCTTATAAAA | 0.996 |
| ACGCGAGCT | 0.98 |

| Sequence | switch fluorescence ratio |
| --- | --- |
| ACACGTTATT | 1.21 |
| AGACTGGGGA | 0.971 |
| AAGATGGTT | 0.977 |
| AGCCTAGCTC | 1.01 |
| GATCCGTGAC | 1.92 |
| CGTGCTACAT | 1.01 |
| AAGGACTGCA | 1.05 |
| ACGTCTCTTG | 0.985 |
| CATGGGTTA | 0.969 |
| CGGTTATAC | 2.32 |
| TTTGACCGGG | 1.02 |
| GCGGAGCCGA | 1.03 |
| CCCTCCTCTT | 1.12 |
| GTTATAGTAC | 1.15 |
| GTCCTTACGA | 1.16 |
| CAAGGGTTGG | 0.989 |
| ATGCCACTAC | 1.14 |
| TGATGTTTAG | 1.01 |
| GGGTATTCAG | 0.972 |
| CTATTTTTG | 1.03 |
| TGCCTATCGA | 0.977 |
| AATCTAGAAT | 1.03 |
| ACTCATTATC | 1.01 |
| AATTACTGA | 1.11 |
| GCTACCGGTA | 1.04 |
| CTAGCTGGGG | 0.987 |

| Sequence | switch fluorescence ratio |
| --- | --- |
| CGTATATGCG | 1.06 |
| AGGGTACCGT | 1.01 |
| CTATCGGTGC | 1.04 |
| TTCATCACTA | 1.01 |
| TCTAAGGACC | 0.999 |
| TCGTGTTGTG | 0.989 |
| AAAGTAGAAG | 0.945 |
| CAATTTTAAG | 1.01 |
| TCAGTGTCAC | 1.06 |
| TGTATTCGGC | 1.01 |
| ACCTCGCCCG | 1.1 |
| TAATCTCTAT | 1.04 |
| ATTACGTTAA | 1.25 |
| CGGATGTTCC | 0.985 |
| TCAGCTGGCG | 0.959 |
| ATACTCCGGT | 1.2 |
| CCAAATCACC | 1.06 |
| CTCAGATGTG | 0.966 |
| AACCGTGAAC | 1.27 |
| AAATTTCTTG | 0.962 |
| TAATCTAATT | 0.989 |
| GCCGACTCT | 1.04 |
| CATAAAACAT | 0.998 |
| TGGGCTGTTG | 0.992 |
| CTCGGACGTG | 0.993 |
| CTATGGGGAA | 0.988 |

| Sequence | switch fluorescence ratio |
| --- | --- |
| GCAGGATA | 0.949 |
| CCAGTTTACA | 0.978 |
| TACGCGGGAT | 1.04 |
| AATCACTTTT | 1 |
| CGGGTCACCC | 0.985 |
| CCACTGATGG | 0.994 |
| GATGCAGAGA | 0.971 |
| GTTAATCGT | 0.945 |
| ATAACAATTT | 1.03 |
| TGCTCGGTCG | 1.02 |
| GCTTCATGGT | 1 |
| AAGTTCGAAG | 0.943 |
| CTAAAGCTGA | 1.11 |
| CGAATAGTTA | 0.995 |
| TGATCTGGGA | 1.15 |
| CATATTCTGT | 0.992 |
| ATAACTTGCA | 1.03 |
| TATGCCTGAA | 0.978 |
| CTTAGTGGCC | 0.991 |
| AGTGGTTTCC | 0.961 |
| AACCTGTACA | 1.1 |
| GATCGTGTAG | 1.01 |
| TAGTCGAATT | 1.01 |
| TCATTATAGC | 0.974 |
| GCACGGGAAA | 0.985 |
| CGGCCGATGC | 1.05 |

| Sequence | switch fluorescence ratio |
| --- | --- |
| GGAGGCCGCA | 1.04 |
| AGGAGAAA | 1.02 |
| TAAGGGGTT | 1.03 |
| ATAGTAGCTG | 0.996 |
| GGCGTGCGCG | 0.985 |
| CAGGATTAAC | 1.04 |
| CAGTAAGGGT | 1.03 |
| TTGGTCACCC | 0.923 |
| CGCGTATGCG | 1.02 |
| GCAGTTGACC | 1.08 |
| CCCGGGGT | 1.25 |
| TCATCGGGAG | 1.17 |
| CCAACTGGGC | 1.12 |
| TAGGTTCATG | 1.01 |
| AGTATACGCG | 1.03 |
| CTACCGGCTT | 1.07 |
| TGAGAGCCTT | 1.01 |
| GAGGCAGATG | 1.04 |
| GCTTGCACCG | 1.02 |
| TTAATCTTG | 1.01 |
| GCGCATCTCT | 1.13 |
| GATCTCAAAT | 1.02 |
| GCATTACGTT | 1.26 |
| TGATCCAAAA | 1 |
| AAGCGTCTTC | 1.04 |
| GATAGGGAAA | 0.972 |

| Sequence | switch fluorescence ratio |
| --- | --- |
| CAGCACAGTG | 1.08 |
| TCCAGGGGTT | 1.18 |
| AATGGTGGCG | 0.949 |
| GTGGGAGAG | 0.967 |
| TTCGGAATCA | 1.02 |
| CTGGAAACCG | 1.18 |
| ACTCTCATCT | 0.994 |
| TTACTCTGCG | 1.2 |
| CAGTCCCTTG | 0.988 |
| CATCTATAGT | 1.03 |
| CGCTTGATTT | 1.06 |
| TTTTCCGAGA | 0.988 |
| CGGCGCACTG | 1.14 |
| GCTCGCGCGG | 1.07 |
| AGAGGGAGGG | 0.998 |
| AGAGGTCTAA | 0.965 |
| TCATACCAGT | 1.01 |
| AGAGGGTTCA | 1.01 |
| TACGGAGATC | 0.992 |
